Reference: paper PMC4336329 (PLoS ONE, 2015)
Hit rate of the full screen: of about 310,000 compounds, about 2,200 (0.71%) showed an effect of 50% or more. Effects have a minus sign here. The list shows a part of the results.

The molecules below were run against human ether-à-go-go-related gene (hERG) potassium channel (human, UniProt Q12809) (assay: primary screen, population patch clamp on CHO cells stably expressing hERG).
Chain of human ether-à-go-go-related gene (hERG) potassium channel (Q12809 whole entry, looked up): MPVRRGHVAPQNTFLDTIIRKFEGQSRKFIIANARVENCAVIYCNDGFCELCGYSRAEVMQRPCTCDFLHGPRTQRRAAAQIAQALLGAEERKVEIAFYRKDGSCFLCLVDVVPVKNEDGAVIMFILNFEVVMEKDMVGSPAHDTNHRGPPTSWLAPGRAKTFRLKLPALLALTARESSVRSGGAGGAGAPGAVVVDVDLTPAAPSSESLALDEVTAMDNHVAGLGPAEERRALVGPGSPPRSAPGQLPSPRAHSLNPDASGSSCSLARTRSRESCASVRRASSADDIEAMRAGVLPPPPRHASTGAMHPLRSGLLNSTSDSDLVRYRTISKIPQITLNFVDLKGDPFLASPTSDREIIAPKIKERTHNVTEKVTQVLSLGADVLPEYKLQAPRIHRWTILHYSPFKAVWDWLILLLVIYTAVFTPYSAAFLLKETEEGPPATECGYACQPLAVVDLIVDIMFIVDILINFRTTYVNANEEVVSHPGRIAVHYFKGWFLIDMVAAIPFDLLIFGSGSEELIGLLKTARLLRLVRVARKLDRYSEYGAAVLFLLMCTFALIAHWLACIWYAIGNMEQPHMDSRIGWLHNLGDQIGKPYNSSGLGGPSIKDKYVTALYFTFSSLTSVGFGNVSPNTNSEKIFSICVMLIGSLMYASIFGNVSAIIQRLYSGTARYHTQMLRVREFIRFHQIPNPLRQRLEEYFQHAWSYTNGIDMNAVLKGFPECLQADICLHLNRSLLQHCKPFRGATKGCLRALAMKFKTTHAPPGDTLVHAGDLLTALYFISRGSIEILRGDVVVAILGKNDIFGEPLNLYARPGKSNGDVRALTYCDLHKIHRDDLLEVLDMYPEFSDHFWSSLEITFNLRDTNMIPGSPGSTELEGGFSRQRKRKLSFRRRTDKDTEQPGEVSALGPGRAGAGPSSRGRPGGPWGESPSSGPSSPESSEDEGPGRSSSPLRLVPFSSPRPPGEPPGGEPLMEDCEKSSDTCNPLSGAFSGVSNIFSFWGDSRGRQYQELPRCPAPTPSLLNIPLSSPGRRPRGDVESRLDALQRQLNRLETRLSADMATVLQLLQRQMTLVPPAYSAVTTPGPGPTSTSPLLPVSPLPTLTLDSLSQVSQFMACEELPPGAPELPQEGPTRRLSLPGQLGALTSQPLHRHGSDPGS

Compound	hERG current change (%, negative = inhibition) at 1uM [%]
O=C(CSc1c2c(nc3cc(Cl)ccc13)CCCC2)NCCCN1CCOCC1	2.69
CCOc1ccc(N2C(=O)Nc3ccccc3C2(O)C(=O)N2CCN(c3ccccn3)CC2)cc1 (stereo not drawn)	5.45
CC1Cc2cc(/C(O)=C3/C(=O)C(=O)N(CCN4CCOCC4)C3c3cccc(O)c3)ccc2O1 (stereo not drawn)	4.37
O=C(C1CCCO1)N1CCN(S(=O)(=O)c2cccc3nsnc23)CC1 (stereo not drawn)	7.09
Cc1ccccc1NC(=O)c1sc2nc3c(c(-c4ccco4)c2c1N)CCC3	11
COc1ccc(OCC(=O)Nn2c(-c3ccc(OC)cc3)nc3ccccc3c2=O)cc1	10.1
CC1Sc2ccc(S(=O)(=O)NCCc3ccc(Cl)cc3)cc2NC1=O (stereo not drawn)	6.63
O=C1CN(C(=O)COC(=O)c2cccc(Br)c2)c2ccccc2N1	13.5
COc1ccc(O)c2c(=O)c3c(OC)cc4c(c3oc12)C1C=COC1O4 (stereo not drawn)	5.98
COc1ccc(NC(=O)CS(=O)(=O)c2cccc(Cl)c2)cc1	0.836
COc1ccccc1NC(=O)CSc1nnc(Cc2cccn2C)n1CCc1ccccc1	-0.155
O=C(c1cccc(F)c1)N1CCN(c2ccc([N+](=O)[O-])c(N3CCOCC3)c2)CC1	5.64
CCCC(=O)Nc1nnc(S(=O)(=O)N2CCCCCC2)s1	14.6
CCC1=NN2C(=N)/C(=C\c3cccn3-c3ccc(Cl)cc3)C(=O)N=C2S1	7.83
O=C(COc1ccc(Cl)cc1Cl)Nc1nnc(C2=COCCO2)o1	8.81
Cc1ccnc(NC(=O)CNC(=O)c2ccccc2Br)c1	12.8
COc1ccc(N2CCN(C(=O)c3ccccc3N(C)S(=O)(=O)c3ccccc3)CC2)cc1	-6.68
COc1cccc(NC(=O)CN(C)C(=O)CSCC(=O)Nc2ccc(C)cc2)c1	12.4
COc1ccc2nc(Cl)c(C#N)cc2c1	8.59
COc1ccc(CC(C)N2CCN(c3ccccc3)CC2)cc1OC (stereo not drawn)	-41.9
Cc1ccc(C)c(CN2C(=O)c3ccccc3S(=O)(=O)c3ccc(C(=O)N4CCN(C)CC4)cc32)c1	-1.77
Cc1ccc(N=N/C(=C\O)C(=O)c2ccncc2)cc1	10.7

Compound	hERG current change (%, negative = inhibition) at 1uM [%]
O=C(CCS(=O)(=O)c1cc2c(cc1Cl)NC(=O)CO2)NCc1ccc(F)cc1	-2.42
COCc1cc(C)n(CC(=O)N/N=C/c2ccc(-c3ccc(Cl)c(C(=O)O)c3)o2)c(=O)c1C#N	9.08
Cc1ccccc1C1c2[nH]c3ccccc3c2C[C@H]2C(=O)N(c3ccccc3C(=O)NCCN3CCOCC3)C(=O)N12 (stereo partly drawn)	14.1
Cc1ccc(NC(=O)NCCN2CCN(C(=O)Nc3ccc(C)cc3)CC2)cc1	3.82
Cc1cc2c(c(=O)n1CCN(C)C)C(c1ccncc1)C(C#N)=C(N)O2 (stereo not drawn)	10.7
COc1ccc(N2C(=O)CC(Nc3ccc(C(=O)O)cc3)C2=O)cc1OC (stereo not drawn)	11.6
CC(C(=O)NCc1ccccn1)N1C(=O)c2ccccc2C1=O (stereo not drawn)	3.06
CCN1C(=O)/C(=c2\s/c(=C3\Sc4ccccc4N3C)c(=O)n2C)N(C)C1=S	14.8
COc1cc2ncc(S(=O)(=O)c3ccccc3)c(N3CCC4(CC3)OCCO4)c2cc1OC	-47.8
O=c1ccc(Oc2nc(N3CCCCC3)nc(N3CCCCC3)n2)n[nH]1	4.98
O=P(CCCO)(Cc1ccccc1)Cc1ccccc1	15.3
Cc1occc1C(=O)Nc1nnc(C(F)(F)F)s1	10.4
C/C(CC(=O)Nc1cc(Cl)ccc1Cl)=N\NC(N)=S	-5.1
COc1ccc(C)cc1-n1c(SCC(=O)NC2CC2)nc2ccccc2c1=O	-6.11
CC1(C)NC(C)(C)/C(=C\c2cccs2)C(=O)C1=O	17.3
CCN(CC)S(=O)(=O)c1ccc(N2CCOCC2)c(NC(=O)Cc2ccccc2F)c1	7.8
CC(=O)C1=C(O)C(=O)N(C)C1c1ccccc1[N+](=O)[O-] (stereo not drawn)	-0.251
C=C1C(=O)O[C@@H]2[C@H]3O[C@]3(C)CC/C=C(\C)CC[C@@H]12	11.9
CCCn1nnnc1SCC(=O)N1CCCc2ccccc21	16.9
NS(=O)(=O)c1ccc(NC(=O)Nc2ccc3c(c2)OCO3)cc1	12.5
COc1cc(CN2CCC(CCC(=O)NC3CC3)CC2)cc(Cl)c1OC	-13.9
CC(C)n1c(=O)c(C=Nc2cccc([N+](=O)[O-])c2)c(O)n(CCc2ccccc2)c1=O	-0.174

Compound	hERG current change (%, negative = inhibition) at 1uM [%]
CC(=O)N1[C@@H]2CC3C4CC=C5C[C@@H](O)CC[C@]5(C)C4CC[C@]3(C)[C@@]21C(C)=O (stereo partly drawn)	0.456
CSc1cc(-c2ccc(Cl)cc2)c(C(=O)NN)s1	7.43
COc1ccc(OC)c(Nc2nc(-c3sc(NC(=O)C(C)(C)C)nc3C)cs2)c1	19.8
Cc1csc(NC(=O)C(C)N2C(=O)c3ccccc3S2(=O)=O)n1 (stereo not drawn)	10
CN(C)/C=C(/C(=O)c1ccc(Cl)c(Cl)c1)S(C)(=O)=O	11.9
Cc1cc(C)c(C)c(S(=O)(=O)NCc2cccnc2)c1C	9.63
CN(Cc1nc2ccccc2c(=O)[nH]1)C(=O)c1cc(C2CC2)nn1-c1ccccc1	-18.9
CCOc1ccccc1CNC(=O)CCCn1ncn2c(cc3occc32)c1=O	6.59
Cc1nnc(SCc2nnc(-c3cccs3)o2)n1Cc1ccccc1	12.1
COCNc1nc(OCC#N)nc(N(C)C)n1	-2.97
COc1cc(S(=O)(=O)Nc2cccc3cn[nH]c23)c(OC)cc1Cl	7.71
CC/S(C)=N/S(=O)(=O)c1ccc(C)cc1 (stereo not drawn)	10.4
O=C(NNC(=S)NC1CCCCC1)c1ccc2c(c1)OCO2	16.2
Cc1ccccc1C(=O)NC(CC(C)C)C(=O)N1CCN(c2ccccc2)CC1 (stereo not drawn)	7.64
C/C(=N\O)C(=O)C(CN1CCCCC1)CN1CCCCC1	12.5
Cc1ccc(NC(=O)Nc2ccc(Cl)c(Cl)c2)nc1	14.6
COC(=O)CNC(c1ccccc1)c1cc(Br)ccc1NC(=O)OCc1ccccc1 (stereo not drawn)	14.3
CCN(CC)S(=O)(=O)c1ccc2oc(SCC3CN=C(c4ccc(OC)cc4)S3)nc2c1 (stereo not drawn)	14.2
CCn1c(-c2ccoc2C)n[nH]c1=S	8.68
COc1ccc(-c2noc(CCC(=O)O)n2)cc1	5.7
CCN(C(=O)COC(=O)Cc1c[nH]c2ccccc12)C1CCS(=O)(=O)C1 (stereo not drawn)	14.6
COc1ccc(C(=O)CC2OC(=O)c3ccccc32)cc1OC (stereo not drawn)	-2.06

Compound	hERG current change (%, negative = inhibition) at 1uM [%]
Cc1nc(SCC(=O)Nc2cccnc2Cl)nc(C)c1C	5.02
Cc1cc(C(=O)CSc2nnc(-c3cccnc3)n2-c2ccccc2)c(C)n1CC1CCCO1 (stereo not drawn)	8.03
O=C(OCc1c(Cl)cccc1Cl)c1ccccn1	4.21
CCC(C)(C)NC(=O)C(c1cccn1C)N(Cc1ccc(C)cc1)C(=O)Cn1nnc2ccccc21 (stereo not drawn)	9.85
O=C(NCc1ccccc1F)C1CCCN1C(=O)NCc1ccccc1 (stereo not drawn)	13.4
COC(=O)C1=C(c2cccc(OCc3ccccc3)c2)C[C@@H]2CC[C@H]1N2C(=O)NCc1ccc(C(C)(C)C)cc1	11.6
O=[N+]([O-])c1ccccc1Oc1ccc(S(=O)(=O)N2CCOCC2)cc1	7.24
CC(C)=CC1C(C(=O)Nc2ccc(Br)cn2)C1(C)C (stereo not drawn)	-6
COc1ccc(S(=O)(=O)Nc2nnc(C(C)(C)C)s2)cc1	15.8
Cc1noc(C)c1COc1ccc(C(=O)N2CCC(C)CC2)cc1	2.95
CCC(=O)NC(NCC1CCCO1)C(Cl)(Cl)Cl (stereo not drawn)	10.3
O=C(CCCCn1c(=S)[nH]c2ccsc2c1=O)NCc1ccco1	5.36
COc1ccccc1C1CC(c2cccs2)=Nc2ccccc2S1 (stereo not drawn)	13
COc1ccccc1NS(=O)(=O)c1ccc(C)c(C(=O)NCC2(N(C)C)CCCCC2)c1	-2.66
O=C(CN(C(=O)c1csnn1)c1ccc(Cl)cc1)NCc1ccc2c(c1)OCO2	22.9
NC(=O)N1OCC2COc3ccc4ccccc4c3C21 (stereo not drawn)	-19
Cl.O=C(OCCN1CCCCC1)c1cc2ccccc2o1	5.08
Cc1ccc(NC(=O)CSCC(=O)N2c3ccccc3CCc3ccccc32)cc1	11.2
COc1ccc(NC(=O)CC2Oc3ccccc3NC2=O)c(OC)c1 (stereo not drawn)	19
Cc1oc(CC(C)C)cc1C(=O)NCCCC(=O)O	12.4
Cc1ccc(C2=NS(=O)(=O)N(C)C(C(=O)NCc3cccs3)=C2)cc1	-5.89
